Whole data set: some 110,000 compounds, median “z-score” near -0.1, cut for the highest 2% near 2. Some of the results follow.
target: Metabotropic glutamate receptor 8 (Rattus norvegicus) (UniProt P70579); assay: mGluR8 Gi/Go-coupled signaling modulation – cell-based, rat, thallium flux, HTS, primary screen (AID 488969); details: HEK293 rat mGluR8, GIRK (G protein-gated inwardly rectifying potassium channel) thallium flux, FluoZin2; at 10 µM; stronger effect = higher value; submaximal glutamate (EC20) added with thallium
Sequence of UniProt P70579 (P70579 whole entry, looked up): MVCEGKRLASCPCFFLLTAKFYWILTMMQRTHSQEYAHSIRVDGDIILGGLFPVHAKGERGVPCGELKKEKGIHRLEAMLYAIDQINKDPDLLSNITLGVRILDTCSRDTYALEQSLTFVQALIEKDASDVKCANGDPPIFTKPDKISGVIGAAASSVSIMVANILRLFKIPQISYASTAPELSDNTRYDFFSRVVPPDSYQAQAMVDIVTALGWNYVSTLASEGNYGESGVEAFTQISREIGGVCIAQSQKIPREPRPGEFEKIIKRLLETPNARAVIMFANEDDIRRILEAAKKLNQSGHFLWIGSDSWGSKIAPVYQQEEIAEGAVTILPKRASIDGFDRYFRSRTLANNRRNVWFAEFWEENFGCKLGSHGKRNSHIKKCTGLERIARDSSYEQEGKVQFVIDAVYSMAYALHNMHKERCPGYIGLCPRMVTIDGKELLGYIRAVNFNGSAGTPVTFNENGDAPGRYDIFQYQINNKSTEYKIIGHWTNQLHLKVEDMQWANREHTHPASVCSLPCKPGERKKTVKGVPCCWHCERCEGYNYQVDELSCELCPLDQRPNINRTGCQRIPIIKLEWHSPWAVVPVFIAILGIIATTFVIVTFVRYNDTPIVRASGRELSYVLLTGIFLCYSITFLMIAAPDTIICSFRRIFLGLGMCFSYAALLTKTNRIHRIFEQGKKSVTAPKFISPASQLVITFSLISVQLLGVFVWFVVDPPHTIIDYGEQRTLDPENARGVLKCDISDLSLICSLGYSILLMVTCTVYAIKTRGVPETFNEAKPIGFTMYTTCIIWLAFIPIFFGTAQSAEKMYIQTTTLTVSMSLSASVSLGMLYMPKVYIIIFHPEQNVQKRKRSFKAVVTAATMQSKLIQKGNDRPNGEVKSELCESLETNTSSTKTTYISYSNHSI

Q: How did the z-score turn out when C=CCSc1nnc(NC(=O)c2ccc(S(=O)(=O)NCC3CCCO3)cc2)s1 (stereo not given) was run?
A: -0.169

Q: Which z-score does the source give for O=C(CN1CCOCC1)N1CCCc2c1c(=O)oc1ccc(OCc3ccccc3)cc21 here?
A: -0.517

Q: Which z-score does the source give for Cc1ccc(C(=O)NCCc2ccncc2)cc1 here?
A: -0.0518

Q: For CCCCn1c(N)c(NCCC(C)C)c(=O)[nH]c1=O, which z-score is on record?
A: 0.0663

Q: For COc1ccc(OC)c(N/C=C2/CCCCC2=O)c1, which z-score is on record?
A: -0.0928

Q: How did the z-score turn out when Cc1ccc(NC(=O)c2ccc(CNS(=O)(=O)c3cccc(C(F)(F)F)c3)cc2)cc1 was run?
A: -0.0681

Q: Which z-score does the source give for COc1cc2[nH]c(=S)nc(NCCCOC(C)C)c2cc1OC here?
A: 0.257

Q: Which z-score does the source give for O=C(COc1ccc(S(=O)(=O)N2CCOCC2)cc1)Nc1ccc(Cl)c(C(F)(F)F)c1 here?
A: 0.835

Q: How did the z-score turn out when COc1ccc(C(=O)N/C(N)=N/c2nc3ccccc3o2)cc1 was run?
A: -0.11

Q: For Cc1cccc(-n2c(SCC(=O)N3CCCC3)nc3n[nH]c(C)c3c2=N)c1, which z-score is on record?
A: -0.237

Q: COC(=O)c1ccc(CSc2nnc(-c3ccc4c(c3)OCO4)n2-c2ccccc2)o1 was tested. Which z-score did it give?
A: -1.21

Q: CNc1oc(-c2ccc(Cl)cc2)nc1P(=O)(c1ccccc1)c1ccccc1 was tested. Which z-score did it give?
A: -0.258

Q: CC(=O)NC(C)c1nc2ccccc2n1C(C)C (stereo not given) was tested. Which z-score did it give?
A: -0.00659

Q: CC(C)CN(C(=O)CSc1nnc2ccccn12)c1c(N)n(CC(C)C)c(=O)[nH]c1=O was tested. Which z-score did it give?
A: -0.775

Q: Which z-score does the source give for C=C(C)Cn1c(C)cc(C)c(S(=O)(=O)c2ccccc2C)c1=O here?
A: -0.371

Q: O=C(CCc1nc2ccccc2c(=O)[nH]1)OCC(=O)N1CCN(S(=O)(=O)c2ccccc2)CC1 was tested. Which z-score did it give?
A: 0.865

Q: How did the z-score turn out when COc1ccccc1N1CCN(C(=O)Nc2cccc(Cl)c2)CC1 was run?
A: -0.123

Q: Which z-score does the source give for Cc1noc(C)c1CSc1nc2ccccc2c(=O)n1-c1ccc(Cl)cc1 here?
A: -0.312

Q: For CCOC(=O)c1cnn(-c2ccccn2)c1N, which z-score is on record?
A: -0.885

Q: How did the z-score turn out when CCOc1cc(/C=C\c2[nH]c(=O)[nH]c(=O)c2[N+](=O)[O-])ccc1OC(C)CC (stereo not given) was run?
A: -0.322

Q: With CCOc1ccc(CCNC(=O)C2CCN(c3nnc(-n4cccc4)s3)CC2)cc1OCC as the molecule, how does the z-score read?
A: -1.57

Q: How did the z-score turn out when Cc1ccc(C)c(Oc2coc3cc(OC(=O)c4cccs4)ccc3c2=O)c1 was run?
A: -0.0966

Q: Which z-score does the source give for O=C(O)c1ccc(CNCc2cccc(Cl)c2Cl)cc1 here?
A: -0.207

Q: COc1ccc(Cc2nc(C(=O)Nc3ccc(F)cc3)cs2)cc1 was tested. Which z-score did it give?
A: -0.279

Q: Which z-score does the source give for Cc1ccc(Cn2c(N)c(S(=O)(=O)c3cccs3)c3nc4ccccc4nc32)cc1 here?
A: -0.1

Q: O=C(CN(C1CCCCC1)S(=O)(=O)c1ccc(F)cc1)NC1CC1 was tested. Which z-score did it give?
A: -0.118

Q: Clc1ccc(OCCSc2ncccn2)cc1 was tested. Which z-score did it give?
A: -0.0238

Q: With O=C(CN(Cc1ccco1)C(=O)c1ccccc1)Nc1ccc(Cl)c(Cl)c1 as the molecule, how does the z-score read?
A: -0.0573

Q: N#Cc1nc(COc2cccc(Cl)c2)oc1NCc1ccco1 was tested. Which z-score did it give?
A: -0.533

Q: How did the z-score turn out when Cc1ccc(-n2nc(C(=O)O)cc2-c2ccccc2)cc1 was run?
A: -1.98

From PubChem BioAssay AID488969 (Vanderbilt High Throughput Screening Facility, 2010)
